Assay results published in patent US20200308244A1 (ORIONIS BIOSCIENCES, published 2020).

Columns and labels:
Assay in all cases: cell-based or functional assay
[1] = target: T1, type I interferon-α/β receptor (IFNAR), composed of the IFNAR1 and IFNAR2 subunits (human, UniProt P17181 28-557; P48551 27-515)
T1 sequence (looked up) 1: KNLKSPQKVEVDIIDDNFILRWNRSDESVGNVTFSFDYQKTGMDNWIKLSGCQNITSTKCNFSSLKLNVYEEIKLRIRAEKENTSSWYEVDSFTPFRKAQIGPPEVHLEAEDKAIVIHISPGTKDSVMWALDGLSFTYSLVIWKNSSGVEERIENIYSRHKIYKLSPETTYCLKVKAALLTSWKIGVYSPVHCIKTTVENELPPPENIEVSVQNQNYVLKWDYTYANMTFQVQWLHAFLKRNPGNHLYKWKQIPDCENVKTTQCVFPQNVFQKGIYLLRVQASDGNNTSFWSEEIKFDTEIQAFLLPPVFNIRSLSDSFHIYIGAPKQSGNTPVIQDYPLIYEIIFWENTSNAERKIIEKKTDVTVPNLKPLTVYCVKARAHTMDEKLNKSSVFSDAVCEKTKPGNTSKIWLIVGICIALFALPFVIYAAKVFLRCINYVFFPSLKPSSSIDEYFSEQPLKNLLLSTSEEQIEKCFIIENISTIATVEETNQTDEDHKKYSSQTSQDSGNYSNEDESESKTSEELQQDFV
T1 sequence (looked up) 2: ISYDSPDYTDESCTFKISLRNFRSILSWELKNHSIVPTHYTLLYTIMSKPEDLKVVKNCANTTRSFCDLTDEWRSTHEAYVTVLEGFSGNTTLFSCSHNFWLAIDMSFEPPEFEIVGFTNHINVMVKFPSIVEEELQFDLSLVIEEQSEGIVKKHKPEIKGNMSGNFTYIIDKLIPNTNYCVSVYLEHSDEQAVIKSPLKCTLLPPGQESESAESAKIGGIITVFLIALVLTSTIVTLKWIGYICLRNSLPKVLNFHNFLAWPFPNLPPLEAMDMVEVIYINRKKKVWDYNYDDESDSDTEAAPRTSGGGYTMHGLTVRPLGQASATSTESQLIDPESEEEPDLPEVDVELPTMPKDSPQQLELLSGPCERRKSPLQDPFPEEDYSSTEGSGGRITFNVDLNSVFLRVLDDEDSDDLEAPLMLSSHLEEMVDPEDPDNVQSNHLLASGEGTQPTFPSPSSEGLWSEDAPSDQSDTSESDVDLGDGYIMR

[2] = target: T1, type I interferon-α/β receptor (IFNAR), …; remark: listed apart in the source
[3] = target: T2, human Clec9A (human, UniProt Q6UXN8 1-241)
[4] = target: T2, human Clec9A; remark: listed apart in the source
T2 sequence (Q6UXN8 whole entry): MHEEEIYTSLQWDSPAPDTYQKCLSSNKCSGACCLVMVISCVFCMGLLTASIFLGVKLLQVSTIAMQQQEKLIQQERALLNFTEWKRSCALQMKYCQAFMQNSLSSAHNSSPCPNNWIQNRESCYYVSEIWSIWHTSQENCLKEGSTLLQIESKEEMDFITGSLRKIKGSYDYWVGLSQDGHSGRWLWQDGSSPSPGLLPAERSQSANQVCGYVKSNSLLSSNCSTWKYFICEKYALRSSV

Binder	EC50 of luciferase (6-16 reporter) induction in HL116-hClec9A (target) cells [1]	EC50 6-16 reporter activity, HL116 [2]	EC50 6-16 reporter activity, HL116-CLEC9A [2]	ratio of EC50 6-16 reporter activity, HL116 / HL116-CLEC9A [3]	EC50 pSTAT1 on primary cDC1 [1]	selectivity window, pSTAT1 on cDC1 versus non-cDC1 cells [4]	EC50 6-16 reporter activity, HL116 (no reporter activity detected at the highest concentration) [2]
R1CHCL50-20*GGS-human IgG1 Fc (hole, effector knock-out; P-1451) + human IgG1 Fc (knob, effector knock-out)-20*GGS-IFNα1 (P-1852) (Fc fusion) chain 1: QVQLVESGGGLVHPGGSLRLSCAASGSFSSINVMGWYRQAPGKERELVARITNLGLPNYADSVTGRFTISRDNAKNTVYLQMNSLKPEDTAVYYCYLVALKAEYWGQGTQVTVSSGGSGGSGGSGGSGGSGGSGGSGGSGGSGGSGGSGGSGGSGGSGGSGGSGGSGGSGGSGGSDKTHTCPPCPAPEAAGGPSVFLFPPKPKDTLMISRTPEVTCVVVDVSHEDPEVKFNWYVDGVEVHNAKTKPREEQYNSTYRVVSVLTVLHQDWLNGKEYKCQVSNKALPAPIEKTISKAKGQPREPQVCTLPPSRDELTKNQVSLSCAVKGFYPSDIAVEWESNGQPENNYKTTPPVLDSDGSFFLVSKLTVDKSRWQQGNVFSCSVMHEALHNHYTQKSLSLSPGK chain 2: [human IgG1 Fc with changes left out here]GGSGGSGGSGGSGGSGGSGGSGGSGGSGGSGGSGGSGGSGGSGGSGGSGGSGGSGGSGGSCDLPETHSLDNRRTLMLLAQMSRISPSSCLMDRHDFGFPQEEFDGNQFQKAPAISVLHELIQQIFNLFTTKDSSAAWDEDLLDKFCTELYQQLNDLEACVMQEERVGETPLMNADSILAVKKYFRRITLYLTEKKYSPCAWEVVRAEIMRSLSLSTNLQERLRRKE	0.3 ng/mL	> 1 nM	0.003 nM	> 330 ratio			
R1CHCL50-5*GGS-human IgG1 Fc (hole; P-1479) + human IgG1 Fc (knob)-10*GGS-IFNα1(C86S) (P-2213) (Fc fusion) chain 1: QVQLVESGGGLVHPGGSLRLSCAASGSFSSINVMGWYRQAPGKERELVARITNLGLPNYADSVTGRFTISRDNAKNTVYLQMNSLKPEDTAVYYCYLVALKAEYWGQGTQVTVSSGGSGGSGGSGGSGGSDKTHTCPPCPAPEAAGGPSVFLFPPKPKDTLMISRTPEVTCVVVDVSHEDPEVKFNWYVDGVEVHNAKTKPREEQYNSTYRVVSVLTVLHQDWLNGKEYKCQVSNKALPAPIEKTISKAKGQPREPQVCTLPPSRDELTKNQVSLSCAVKGFYPSDIAVEWESNGQPENNYKTTPPVLDSDGSFFLVSKLTVDKSRWQQGNVFSCSVMHEALHNHYTQKSLSLSPGK chain 2: [human IgG1 Fc with changes left out here]GGSGGSGGSGGSGGSGGSGGSGGSGGSGGSCDLPETHSLDNRRTLMLLAQMSRISPSSCLMDRHDFGFPQEEFDGNQFQKAPAISVLHELIQQIFNLFTTKDSSAAWDEDLLDKFSTELYQQLNDLEACVMQEERVGETPLMNADSILAVKKYFRRITLYLTEKKYSPCAWEVVRAEIMRSLSLSTNLQERLRRKE		> 1 nM			20 pM	> 300 fold	
R1CHCL50-5*GGS-human IgG1 Fc (hole; P-1479) + human IgG1 Fc (knob)-10*GGS-IFNα1(C86Y) (P-2216) (Fc fusion) chain 1: QVQLVESGGGLVHPGGSLRLSCAASGSFSSINVMGWYRQAPGKERELVARITNLGLPNYADSVTGRFTISRDNAKNTVYLQMNSLKPEDTAVYYCYLVALKAEYWGQGTQVTVSSGGSGGSGGSGGSGGSDKTHTCPPCPAPEAAGGPSVFLFPPKPKDTLMISRTPEVTCVVVDVSHEDPEVKFNWYVDGVEVHNAKTKPREEQYNSTYRVVSVLTVLHQDWLNGKEYKCQVSNKALPAPIEKTISKAKGQPREPQVCTLPPSRDELTKNQVSLSCAVKGFYPSDIAVEWESNGQPENNYKTTPPVLDSDGSFFLVSKLTVDKSRWQQGNVFSCSVMHEALHNHYTQKSLSLSPGK chain 2: [human IgG1 Fc with changes left out here]GGSGGSGGSGGSGGSGGSGGSGGSGGSGGSCDLPETHSLDNRRTLMLLAQMSRISPSSCLMDRHDFGFPQEEFDGNQFQKAPAISVLHELIQQIFNLFTTKDSSAAWDEDLLDKFYTELYQQLNDLEACVMQEERVGETPLMNADSILAVKKYFRRITLYLTEKKYSPCAWEVVRAEIMRSLSLSTNLQERLRRKE		> 1 nM	0.001 nM	> 1000 ratio	350 pM	> 100 fold	
R1CHCL50-5*GGS-human IgG1 Fc (hole; P-1479) + human IgG1 Fc (knob)-10*GGS-IFNα1(C86S, A146G) (P-2214) (Fc fusion) chain 1: QVQLVESGGGLVHPGGSLRLSCAASGSFSSINVMGWYRQAPGKERELVARITNLGLPNYADSVTGRFTISRDNAKNTVYLQMNSLKPEDTAVYYCYLVALKAEYWGQGTQVTVSSGGSGGSGGSGGSGGSDKTHTCPPCPAPEAAGGPSVFLFPPKPKDTLMISRTPEVTCVVVDVSHEDPEVKFNWYVDGVEVHNAKTKPREEQYNSTYRVVSVLTVLHQDWLNGKEYKCQVSNKALPAPIEKTISKAKGQPREPQVCTLPPSRDELTKNQVSLSCAVKGFYPSDIAVEWESNGQPENNYKTTPPVLDSDGSFFLVSKLTVDKSRWQQGNVFSCSVMHEALHNHYTQKSLSLSPGK chain 2: [human IgG1 Fc with changes left out here]GGSGGSGGSGGSGGSGGSGGSGGSGGSGGSCDLPETHSLDNRRTLMLLAQMSRISPSSCLMDRHDFGFPQEEFDGNQFQKAPAISVLHELIQQIFNLFTTKDSSAAWDEDLLDKFSTELYQQLNDLEACVMQEERVGETPLMNADSILAVKKYFRRITLYLTEKKYSPCAWEVVRGEIMRSLSLSTNLQERLRRKE			0.019 nM	> 50 ratio			> 1 nM
R1CHCL50-5*GGS-human IgG1 Fc (hole; P-1479) + human IgG1 Fc (knob)-10*GGS-IFNα1(C86Y, A146G) (P-2217) (Fc fusion) chain 1: QVQLVESGGGLVHPGGSLRLSCAASGSFSSINVMGWYRQAPGKERELVARITNLGLPNYADSVTGRFTISRDNAKNTVYLQMNSLKPEDTAVYYCYLVALKAEYWGQGTQVTVSSGGSGGSGGSGGSGGSDKTHTCPPCPAPEAAGGPSVFLFPPKPKDTLMISRTPEVTCVVVDVSHEDPEVKFNWYVDGVEVHNAKTKPREEQYNSTYRVVSVLTVLHQDWLNGKEYKCQVSNKALPAPIEKTISKAKGQPREPQVCTLPPSRDELTKNQVSLSCAVKGFYPSDIAVEWESNGQPENNYKTTPPVLDSDGSFFLVSKLTVDKSRWQQGNVFSCSVMHEALHNHYTQKSLSLSPGK chain 2: [human IgG1 Fc with changes left out here]GGSGGSGGSGGSGGSGGSGGSGGSGGSGGSCDLPETHSLDNRRTLMLLAQMSRISPSSCLMDRHDFGFPQEEFDGNQFQKAPAISVLHELIQQIFNLFTTKDSSAAWDEDLLDKFYTELYQQLNDLEACVMQEERVGETPLMNADSILAVKKYFRRITLYLTEKKYSPCAWEVVRGEIMRSLSLSTNLQERLRRKE			0.007 nM	> 140 ratio			> 1 nM
R1CHCL50-5*GGS-human IgG1 Fc (hole; P-1479) + human IgG1 Fc (knob)-10*GGS-IFNα1(C86S, M149V) (P-2215) (Fc fusion) chain 1: QVQLVESGGGLVHPGGSLRLSCAASGSFSSINVMGWYRQAPGKERELVARITNLGLPNYADSVTGRFTISRDNAKNTVYLQMNSLKPEDTAVYYCYLVALKAEYWGQGTQVTVSSGGSGGSGGSGGSGGSDKTHTCPPCPAPEAAGGPSVFLFPPKPKDTLMISRTPEVTCVVVDVSHEDPEVKFNWYVDGVEVHNAKTKPREEQYNSTYRVVSVLTVLHQDWLNGKEYKCQVSNKALPAPIEKTISKAKGQPREPQVCTLPPSRDELTKNQVSLSCAVKGFYPSDIAVEWESNGQPENNYKTTPPVLDSDGSFFLVSKLTVDKSRWQQGNVFSCSVMHEALHNHYTQKSLSLSPGK chain 2: [human IgG1 Fc with changes left out here]GGSGGSGGSGGSGGSGGSGGSGGSGGSGGSCDLPETHSLDNRRTLMLLAQMSRISPSSCLMDRHDFGFPQEEFDGNQFQKAPAISVLHELIQQIFNLFTTKDSSAAWDEDLLDKFSTELYQQLNDLEACVMQEERVGETPLMNADSILAVKKYFRRITLYLTEKKYSPCAWEVVRAEIVRSLSLSTNLQERLRRKE			0.06 nM	> 15 ratio			> 1 nM
R1CHCL50-5*GGS-human IgG1 Fc (hole; P-1479) + human IgG1 Fc (knob)-10*GGS-IFNα1(C86Y, M149V) (P-2218) (Fc fusion) chain 1: QVQLVESGGGLVHPGGSLRLSCAASGSFSSINVMGWYRQAPGKERELVARITNLGLPNYADSVTGRFTISRDNAKNTVYLQMNSLKPEDTAVYYCYLVALKAEYWGQGTQVTVSSGGSGGSGGSGGSGGSDKTHTCPPCPAPEAAGGPSVFLFPPKPKDTLMISRTPEVTCVVVDVSHEDPEVKFNWYVDGVEVHNAKTKPREEQYNSTYRVVSVLTVLHQDWLNGKEYKCQVSNKALPAPIEKTISKAKGQPREPQVCTLPPSRDELTKNQVSLSCAVKGFYPSDIAVEWESNGQPENNYKTTPPVLDSDGSFFLVSKLTVDKSRWQQGNVFSCSVMHEALHNHYTQKSLSLSPGK chain 2: [human IgG1 Fc with changes left out here]GGSGGSGGSGGSGGSGGSGGSGGSGGSGGSCDLPETHSLDNRRTLMLLAQMSRISPSSCLMDRHDFGFPQEEFDGNQFQKAPAISVLHELIQQIFNLFTTKDSSAAWDEDLLDKFYTELYQQLNDLEACVMQEERVGETPLMNADSILAVKKYFRRITLYLTEKKYSPCAWEVVRAEIVRSLSLSTNLQERLRRKE			0.015 nM	> 65 ratio			> 1 nM
